# Hit rate of the full screen: of about 360,000 compounds, about 2,600 (0.72%) were called active. The inconclusive results got no clear call from the source; some entries with a clear call stand among them for comparison. Calls come from the whole dose curve; as a rule, active = well fitted inhibition curve with a large enough effect; inconclusive = small, poorly fitted or top-dose-only effect; inactive = no such curve, though single readings can be large or run the other way. Where the call is inconclusive, the potency comes from a doubtful curve fit.
# Assay: Primary qHTS for Inhibitors of ATXN expression; note: nearly all actives have a fitted effect of over 55% in size
# Conditions: HEK-293 ATXN2-luciferase reporter, luminescence, 24 h; activity change, negative = inhibition: at 57 µM (top of the series)
# Outline: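 qHTS (up to 57 uM final) was run with 24 h compound exposure of reporter cells at 37 °C. Each well was multiplexed: SteadyGlo luminescence measured ATXN2-luciferase expression after a fluorogenic Gly-Phe-AFC viability readout (25 uM final).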
# % is set by controls: 0 for no effect and ±100 for the full control effect; potency is the fitted concentration of half-maximal effect; tags give direction and shape of the fitted curve.
Compound,Potency,"activity change, negative = inhibition"
Oc1c(C(c2ccc(Cl)cc2Cl)N2CCN(c3ccccc3)CC2)sc2nc(-c3ccco3)nn12 (stereo unspecified),"inconclusive: 25.1 µM [inhibitor, partial curve, poor fit]",–
CCOC(=O)N(C)c1c(CC)nc2c(OCc3cccc(Cl)c3)cccn12,"inconclusive: 31.6 µM [inhibitor, partial curve, poor fit]",–
CC(C)Oc1ccc(CNC(=O)c2ccc(CN3CC(=O)N4CCCCC4C3=O)cc2)cc1 (stereo unspecified),–,inactive: 1.31%
CCOC(=O)C1(CCOc2ccccc2)CCN(Cc2cccc(OCCO)c2)CC1,–,inactive: -7.51%
CCN(CC)S(=O)(=O)c1cccc(NC(=O)CN(C)Cc2cccc(OC)c2)c1,"inconclusive: 10 µM [inhibitor, partial curve, poor fit]",–
Cc1cc(C)cc(Oc2ccc(C(F)(F)F)cc2C#N)c1,–,inactive: 2.46%
CCC(CC)N1CCN(CC2CC=CCC2)CC1 (stereo unspecified),"inconclusive: 1.5 µM [inhibitor, partial curve, poor fit]",–
O=[N+]([O-])c1ccc2oc(C(O)c3cccc(Cl)c3)cc2c1 (stereo unspecified),"inconclusive: 39.8 µM [inhibitor, single point]",–
O=C1C=CC2(C=C1)O[C@H](Cc1ccccc1)[C@@H](Cc1ccccc1)O2,"inconclusive: 2.67 µM [inhibitor, full curve, poor fit]",–
CC(=O)c1c(C)oc2ccc(N(C(C)=O)S(=O)(=O)c3ccc(Cl)c([N+](=O)[O-])c3)cc12,active: 25.1 µM,–
CCOC(=O)c1cnc2ccccc2c1NCCc1ccc(OC)c(OC)c1,"inconclusive: 22.4 µM [inhibitor, single point]",–
C/C(=N/NC(=O)c1ccccn1)c1ccco1,"inconclusive: 11.2 µM [inhibitor, partial curve, poor fit]",–
CCOc1ccc(N=Nc2cc(C(C)C)ccc2O)cc1,–,inactive: 1.1%
C#Cc1ccc(NC(=O)C2(C)CCN2C(=O)Cc2ccc(-c3ccccc3)cc2)cc1 (stereo unspecified),"inconclusive: 12.6 µM [inhibitor, partial curve, poor fit]",–
CC(=O)c1cn(CC(=O)Nc2ccc(C)cc2C)c2ccccc12,"inconclusive: 1 µM [inhibitor, partial curve, poor fit]",–
COc1ccc(Oc2c(-c3ccc(O)cc3O)n[nH]c2C)cc1,–,inactive: -1.01%
Cc1c(C(=O)O)sc2nc3n(c(=O)c12)CCC(C)CC3 (stereo unspecified),"inconclusive: 39.8 µM [inhibitor, partial curve, poor fit]",–
O=c1[nH]c(-c2ccccn2)nc2ccccc12,"inconclusive: 39.8 µM [inhibitor, single point]",–
CCN1CCN(C2=C(NS(=O)(=O)c3ccc(C)cc3)C(=O)c3ccccc3C2=O)CC1,"inconclusive: 22.4 µM [inhibitor, partial curve, poor fit]",–
CCN(CC)CCNC(=O)c1c(C)n(-c2ccccc2)c2cc(Br)c(OC)cc12,"inconclusive: 39.8 µM [inhibitor, single point]",–
CCSc1nnc(NC(=O)c2ccc(Br)s2)s1,–,inactive: 27.1%
FC(F)(F)c1cc(Nc2ccccc2)nc(-c2ccccn2)n1,"inconclusive: 17.8 µM [inhibitor, single point]",–

Compound,Potency,"activity change, negative = inhibition"
CCc1ccc2c(c1)C1(NN=C(c3ccc(C)cc3)S1)C(=O)N2 (stereo unspecified),"inconclusive: 20 µM [inhibitor, single point]",–
O=C(N/N=C/c1cc2c(cc1Br)OCO2)c1cccnc1,–,inactive: 20.6%
NC(Cc1ccc(C(F)(F)F)cc1)c1csc(Nc2nncc3ccccc23)n1 (stereo unspecified),"inconclusive: 39.8 µM [inhibitor, single point]",–
COc1ccc(-c2nn(-c3ccccc3)cc2/C=N/NC(=O)c2cccc(S(=O)(=O)Nc3ccccc3Cl)c2)cc1,–,inactive: 36%
COc1cc(C(=O)Oc2ccccc2/C=N/NC(=O)c2ccc(Cl)cc2)cc(OC)c1OC,–,inactive: 0%
COc1ccc(C2C(C(=O)N3CCC(C)CC3)c3ccccc3C(=O)N2C)cc1 (stereo unspecified),"inconclusive: 11.2 µM [inhibitor, partial curve, poor fit]",–
O=C(O)Cn1cnc2sc3c(c2c1=O)CCCC3,"inconclusive: 23.8 µM [inhibitor, partial curve, poor fit]",–
CC1=C(C(=O)Nc2cccnc2)C(c2ccc(Cl)cc2)n2nc(-c3ccccc3)nc2N1 (stereo unspecified),"inconclusive: 39.8 µM [inhibitor, single point]",–
CCOc1cc(/C=C2/C(=O)ON=C2C)ccc1OCc1ccc(F)cc1,"inconclusive: 20 µM [inhibitor, partial curve, poor fit]",–
COc1ccc(C(=O)Nc2cccc(OCc3cc(=O)n4c5c(sc4n3)CCCC5)c2)cc1,–,inactive: 6.28%
CCc1ccc(/C=C2\SC(=S)N(CCC(=O)Nc3cc(C)on3)C2=O)cc1,"inconclusive: 0.67 µM [inhibitor, partial curve, poor fit]",–
COc1ccc(S(=O)(=O)NC(=O)C2(C)CCN2C(=O)Cc2cc(C)cc(C)c2)cc1OC (stereo unspecified),–,inactive: 13.2%
CCCCN=c1scc(-c2ccc3c(c2)NC(=O)CO3)n1N=C1CCCC1,"inconclusive: 39.8 µM [inhibitor, single point]",–
Cc1ccc(C)c(CC(=O)N2CCCC(c3cc(C(=O)Nc4ccc5c(c4)OCO5)no3)C2)c1 (stereo unspecified),"inconclusive: 17.8 µM [inhibitor, partial curve, poor fit]",–
C[C@@H](NC(=O)c1coc(=O)c(Br)c1)c1ccccc1,"inconclusive: 25.1 µM [inhibitor, single point]",–
Cc1ccc(NC(=O)CSc2ccc(Br)cc2)cc1S(=O)(=O)N1CCOCC1,"inconclusive: 17.8 µM [inhibitor, partial curve, poor fit]",–
CCOc1ccccc1NC(=O)CN1C(=O)CC(c2ccc(OC)c(OC)c2)Sc2ccccc21 (stereo unspecified),"inconclusive: 39.8 µM [inhibitor, single point]",–
COc1ccc(-c2n[nH]c(C(F)(F)F)c2-c2cc3ccccc3o2)c(O)c1,"inconclusive: 28.2 µM [inhibitor, single point]",–
CN(C)c1ccc(C=c2c3ccccc3n3c2cc(-c2ccc(Cl)cc2)[n+]3C)cc1,"inconclusive: 10 µM [inhibitor, partial curve]",–
CCc1cc2c3c(c1)C(C)CC(C)(C)N3C(=O)/C2=C1\SC(=O)NC1=O (stereo unspecified),–,inactive: -2.03%
CCn1nc(C)c2c(-c3ccccc3)cc(=O)n(C(C)C(=O)NCCc3ccc(Cl)cc3)c21 (stereo unspecified),"inconclusive: 28.2 µM [inhibitor, single point]",–
CCOC(=O)c1c(S(=O)(=O)N2CCC(C(=O)Nc3ccc(C)c(Cl)c3)CC2)c(C)n(C)c1C,–,inactive: -6.07%

Compound,Potency,"activity change, negative = inhibition"
CC1=C(C(=O)Nc2ccc(C)cc2C)C(c2cccc(Cl)c2)n2nc(C(=O)OC(C)C)nc2N1 (stereo unspecified),"inconclusive: 31.6 µM [inhibitor, single point]",–
COc1ccccc1NC(=O)Nc1nc(C(N)Cc2ccccc2)cs1 (stereo unspecified),"inconclusive: 31.6 µM [inhibitor, single point]",–
COc1cccc(C2CC(c3ccccc3)=NN2S(=O)(=O)c2ccc(C)cc2)c1OC (stereo unspecified),"inconclusive: 1.06 µM [inhibitor, full curve, poor fit]",–
CN(CC(=O)NCC(=O)Nc1ccc(F)c(F)c1F)C1CCS(=O)(=O)C1 (stereo unspecified),–,inactive: 0.394%
CC(C(=O)NC1CCCC1)N(C(=O)Cn1nnc(-c2ccc(F)cc2)n1)c1ccccc1F (stereo unspecified),–,inactive: -19.1%
O=[N+]([O-])c1ccc(NNC(=S)Nc2ccc(F)cc2)cc1,"inconclusive: 39.8 µM [inhibitor, single point]",–
N#Cc1ccc(Oc2nc(Nc3ccc(F)cc3)nc(N3CCCC3)n2)cc1,–,inactive: -8%
C=CCOc1ccccc1CNCCCN1CCOCC1,–,inactive: -4.5%
C/C(=N\NC(=S)NCc1ccccc1)c1ccc2ccccc2c1OC(F)F,"inconclusive: 37.7 µM [inhibitor, single point]",–
Cc1cc2nc(N3C(=O)CNC3=S)sc2cc1C,"inconclusive: 22.4 µM [inhibitor, single point]",–
O=C(N/N=C1\CC(c2ccccc2)Oc2ccccc21)c1cccnc1 (stereo unspecified),"inconclusive: 21.2 µM [inhibitor, partial curve, poor fit]",–
O=C(/C=C/c1ccco1)OCC(=O)c1cccc([N+](=O)[O-])c1,–,inactive: 9.57%
O=C(Cn1nc2ccccc2n1)N/N=C/c1cc(Cl)cc([N+](=O)[O-])c1O,"inconclusive: 25.1 µM [inhibitor, partial curve, poor fit]",–
O=C(Nc1ccc(Br)cc1)c1cc(S(=O)(=O)NC2CCCC2)ccc1F,"inconclusive: 25.1 µM [inhibitor, single point]",–
Cn1c(=O)c2ncn(CC(=O)N/N=C/c3ccco3)c2n(C)c1=O,"inconclusive: 0.0084 µM [inhibitor, full curve, poor fit]",–
Fc1ccc(-n2cc(-c3ccccc3)c3c(=S)nc[nH]c32)cc1,–,inactive: 0%
CC(C)(C)c1ccc(C(=O)c2c[nH]c(C(=O)NCc3ccco3)c2)cc1,–,inactive: -0.965%
COc1ccc(C2=NN(C(=O)c3ccco3)C(c3ccco3)C2)cc1OC (stereo unspecified),–,inactive: -12.7%
COc1cccc(-c2nc(CS(=O)(=O)CC(=O)Nc3ccccc3Cl)c(C)o2)c1,"inconclusive: 25.1 µM [inhibitor, partial curve, poor fit]",–
COc1ccc2sc(-c3ccc(N(C)C)cc3)c(C#Cc3cncn3C)c2c1,"inconclusive: 28.2 µM [inhibitor, single point]",–
N=c1n(Cc2ccccc2)c2ccccc2n1Cc1ccccc1,"inconclusive: 28.2 µM [inhibitor, partial curve, poor fit]",–
CCOC(=O)C1=CC[C@@H](c2cccc(C)c2)N(S(=O)(=O)c2ccc(C)cc2)[C@H]1C(=O)OCC,"inconclusive: 15.8 µM [inhibitor, partial curve, poor fit]",–
